Results published in the supplement of paper PMC3694890.
± gives the uncertainty stated by the source. The list shows a part of the results. A small y stands for phosphotyrosine.

Target: GRB2 (endogenous complexes from cell lysate), P62993
Assay: GRB2 complex binding differential signal (pY peptide minus Ala control peptide) (fluorescence intensity units); higher = stronger GRB2 complex binding
Conditions: MCF7
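Note: phosphopeptide probes on the chip at 1–4 µM, lysate proteins bound in 20 mM Tris pH 7.0 buffer with 140 mM NaCl, 1% Triton X-100 and 5% glycerol.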

| Binder | GRB2 complex binding differential signal |
| --- | --- |
| yITSRT [SRC_216/A1] | 9470 ± 3200 |
| yMTGRR [SH2D3A_95/A1] | 897 ± 280 |
| yGSLSS [SHIP1_1022/A1] | 586 ± 290 |
| yCELVP [SH2D3A_231/A1] | -1480 ± 3900 |
| yPDYKY [SOX4_123/A1] | 677 ± 420 |
| yIVTEY [SRC_338/A1] | 127 ± 180 |
| yDQPPK [SHIP1_944/A1] | 3290 ± 560 |
| yYNSIP [SHC2_338/A1] | 12100 ± 3300 |
| yMGVGP [SHIP1_915/A1] | 1970 ± 610 |
| yEWISI [SHIP2_886/A1] | 199 ± 300 |
| yTAASP [SH22A_39/A1] | 3710 ± 1300 |
| yDVPPA [BCAR1_327/A1] | 2390 ± 640 |
| yDVPPP [BCAR1_362/A1] | 1960 ± 690 |
| yVNVQN [SHC1_427/A1] | 43000 ± 9200 |
| yVNTQG [SHC2_414/A1] | 36000 ± 8000 |
| yEKVTQ [SOCS3_204/A1] | 776 ± 630 |
| yNSIPG [SHC2_339/A1] | 684 ± 1000 |

| Binder | GRB2 complex binding differential signal |
| --- | --- |
| yENCLE [SHC4_424/A1] | 12500 ± 5100 |
| yYVLEG [SHIP2_986/A1] | 163 ± 400 |
| yVLEGV [SHIP2_987/A1] | 90 ± 560 |
| yKYRPR [SOX4_126/A1] | 1850 ± 340 |
| yCLSVS [SRC_187/A1] | 99.1 ± 170 |
| yAPAGP [SHIP2_1135/A1] | 3340 ± 1100 |
| yDFVKT [SHIP1_865/A1] | 830 ± 280 |
| yYNDFP [SHC1_349/A1] | 4260 ± 640 |
| yVKFSK [SH2D3C_183/A1] | 101 ± 160 |
| yHTNAE [SH2D3C_793/A1] | 1310 ± 500 |
| yCQLQP [SH2D3C_495/A1] | 533 ± 500 |
| yGRPLS [SHIP2_1162/A1] | 5390 ± 590 |
| yAWHKQ [SHIP2_671/A1] | -67.5 ± 230 |
| yDVPPG [BCAR1_372/A1] | 896 ± 350 |
| yDAPLG [SOCS3_221/A1] | 2260 ± 420 |
| yNDFPG [SHC1_350/A1] | -1370 ± 510 |

Same assay, conditions: MCF10A

| Binder | GRB2 complex binding differential signal |
| --- | --- |
| yITSRT [SRC_216/A1] | 4700 ± 500 |
| yMTGRR [SH2D3A_95/A1] | 350 ± 190 |
| yGSLSS [SHIP1_1022/A1] | 3.41 ± 320 |
| yCELVP [SH2D3A_231/A1] | 155 ± 190 |
| yPDYKY [SOX4_123/A1] | 120 ± 200 |
| yIVTEY [SRC_338/A1] | 126 ± 490 |
| yDQPPK [SHIP1_944/A1] | 2150 ± 300 |
| yYNSIP [SHC2_338/A1] | 4930 ± 800 |
| yMGVGP [SHIP1_915/A1] | 1400 ± 620 |
| yEWISI [SHIP2_886/A1] | 23.1 ± 160 |
| yTAASP [SH22A_39/A1] | 3150 ± 640 |
| yDVPPA [BCAR1_327/A1] | 1800 ± 760 |
| yDVPPP [BCAR1_362/A1] | 1140 ± 260 |
| yVNVQN [SHC1_427/A1] | 25500 ± 4600 |
| yVNTQG [SHC2_414/A1] | 26000 ± 5600 |
| yEKVTQ [SOCS3_204/A1] | 2130 ± 410 |
| yNSIPG [SHC2_339/A1] | 3070 ± 480 |

| Binder | GRB2 complex binding differential signal |
| --- | --- |
| yENCLE [SHC4_424/A1] | 14000 ± 2200 |
| yYVLEG [SHIP2_986/A1] | 52.2 ± 410 |
| yVLEGV [SHIP2_987/A1] | 245 ± 210 |
| yKYRPR [SOX4_126/A1] | 952 ± 180 |
| yCLSVS [SRC_187/A1] | 45 ± 350 |
| yAPAGP [SHIP2_1135/A1] | 3640 ± 1600 |
| yDFVKT [SHIP1_865/A1] | 256 ± 310 |
| yYNDFP [SHC1_349/A1] | 3160 ± 490 |
| yVKFSK [SH2D3C_183/A1] | 197 ± 160 |
| yHTNAE [SH2D3C_793/A1] | 1430 ± 540 |
| yCQLQP [SH2D3C_495/A1] | 633 ± 210 |
| yGRPLS [SHIP2_1162/A1] | 1880 ± 750 |
| yAWHKQ [SHIP2_671/A1] | 148 ± 230 |
| yDVPPG [BCAR1_372/A1] | 1250 ± 590 |
| yDAPLG [SOCS3_221/A1] | 1430 ± 310 |
| yNDFPG [SHC1_350/A1] | -57.7 ± 690 |

Same assay, conditions: MDA-MB-231

| Binder | GRB2 complex binding differential signal |
| --- | --- |
| yITSRT [SRC_216/A1] | 1420 ± 330 |
| yMTGRR [SH2D3A_95/A1] | 72.3 ± 230 |
| yGSLSS [SHIP1_1022/A1] | 797 ± 280 |
| yCELVP [SH2D3A_231/A1] | 595 ± 390 |
| yPDYKY [SOX4_123/A1] | 113 ± 250 |
| yIVTEY [SRC_338/A1] | 376 ± 290 |
| yDQPPK [SHIP1_944/A1] | 1230 ± 580 |
| yYNSIP [SHC2_338/A1] | 2100 ± 360 |
| yMGVGP [SHIP1_915/A1] | 776 ± 340 |
| yEWISI [SHIP2_886/A1] | 213 ± 390 |
| yTAASP [SH22A_39/A1] | 1390 ± 1300 |
| yDVPPA [BCAR1_327/A1] | 1510 ± 500 |
| yDVPPP [BCAR1_362/A1] | 1510 ± 550 |
| yVNVQN [SHC1_427/A1] | 31500 ± 5900 |
| yVNTQG [SHC2_414/A1] | 10400 ± 1100 |
| yEKVTQ [SOCS3_204/A1] | 2350 ± 1800 |
| yNSIPG [SHC2_339/A1] | 523 ± 560 |

| Binder | GRB2 complex binding differential signal |
| --- | --- |
| yENCLE [SHC4_424/A1] | 8550 ± 1300 |
| yYVLEG [SHIP2_986/A1] | 458 ± 380 |
| yVLEGV [SHIP2_987/A1] | 1190 ± 290 |
| yKYRPR [SOX4_126/A1] | 183 ± 230 |
| yCLSVS [SRC_187/A1] | 620 ± 320 |
| yAPAGP [SHIP2_1135/A1] | 1350 ± 370 |
| yDFVKT [SHIP1_865/A1] | 507 ± 430 |
| yYNDFP [SHC1_349/A1] | 3010 ± 520 |
| yVKFSK [SH2D3C_183/A1] | 637 ± 390 |
| yHTNAE [SH2D3C_793/A1] | 1040 ± 340 |
| yCQLQP [SH2D3C_495/A1] | 554 ± 390 |
| yGRPLS [SHIP2_1162/A1] | 839 ± 280 |
| yAWHKQ [SHIP2_671/A1] | 67.9 ± 540 |
| yDVPPG [BCAR1_372/A1] | 587 ± 680 |
| yDAPLG [SOCS3_221/A1] | 1860 ± 420 |
| yNDFPG [SHC1_350/A1] | 409 ± 350 |

Same assay, conditions: T47D

| Binder | GRB2 complex binding differential signal |
| --- | --- |
| yITSRT [SRC_216/A1] | 3770 ± 1200 |
| yGSLSS [SHIP1_1022/A1] | 1250 ± 1000 |
| yCELVP [SH2D3A_231/A1] | 86.7 ± 910 |
| yPDYKY [SOX4_123/A1] | 736 ± 1700 |
| yIVTEY [SRC_338/A1] | 590 ± 1200 |
| yDQPPK [SHIP1_944/A1] | 1100 ± 1800 |
| yYNSIP [SHC2_338/A1] | 8620 ± 1600 |
| yMGVGP [SHIP1_915/A1] | 905 ± 1100 |
| yEWISI [SHIP2_886/A1] | 737 ± 1000 |
| yTAASP [SH22A_39/A1] | 2840 ± 1000 |
| yDVPPA [BCAR1_327/A1] | 1140 ± 1100 |
| yDVPPP [BCAR1_362/A1] | 987 ± 1100 |
| yVNVQN [SHC1_427/A1] | 39100 ± 7200 |
| yVNTQG [SHC2_414/A1] | 9040 ± 9400 |
| yEKVTQ [SOCS3_204/A1] | 1760 ± 1500 |
| yNSIPG [SHC2_339/A1] | -23 ± 1200 |

| Binder | GRB2 complex binding differential signal |
| --- | --- |
| yENCLE [SHC4_424/A1] | 10100 ± 3400 |
| yYVLEG [SHIP2_986/A1] | 423 ± 1100 |
| yVLEGV [SHIP2_987/A1] | 1940 ± 1200 |
| yKYRPR [SOX4_126/A1] | 238 ± 1800 |
| yCLSVS [SRC_187/A1] | 319 ± 980 |
| yAPAGP [SHIP2_1135/A1] | 1580 ± 910 |
| yDFVKT [SHIP1_865/A1] | 1130 ± 1100 |
| yYNDFP [SHC1_349/A1] | 13500 ± 3100 |
| yVKFSK [SH2D3C_183/A1] | 1090 ± 760 |
| yHTNAE [SH2D3C_793/A1] | 1070 ± 1100 |
| yCQLQP [SH2D3C_495/A1] | 388 ± 1100 |
| yGRPLS [SHIP2_1162/A1] | 2740 ± 1300 |
| yAWHKQ [SHIP2_671/A1] | -215 ± 1200 |
| yDVPPG [BCAR1_372/A1] | 807 ± 1100 |
| yDAPLG [SOCS3_221/A1] | 1870 ± 1100 |
| yNDFPG [SHC1_350/A1] | 828 ± 1100 |
